# Measured values as given in ChEMBL document CHEMBL1201862, “PubChem BioAssay data set” (2004).
#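 Grown in 96-well plates, cells were treated for 48 hours with each compound at five concentrations. Insufficient inhibition: endpoint recorded as highest concentration tested. Abbreviation: GI50, concentration required for 50% inhibition of growth.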 Active and inactive are the calls of the source. Rule as the data show it: active = GI50 up to about 1.1 µM and inactive = higher.
# System: NCI-H322M
# Experiment: DTP human tumour cell line panel, 48 h
row,Compound,GI50
1,CCc1nn(CN2CCN(C)CC2)c(=S)n1/N=C\c1ccc(-c2ccc([N+](=O)[O-])cc2)o1,inactive: > 100 µM
2,O=c1oc2ccccc2[n+]([O-])c1-c1ccccc1,inactive: > 100 µM
3,CC(=O)Oc1ccc2cc(Oc3ccc(Cl)cc3)c(=O)oc2c1,inactive: 49.3 µM
4,CC1=N/C(=C\c2ccc(N)cc2)C(=O)N1Nc1nnc(NN2C(=O)/C(=C/c3ccc(N)cc3)N=C2C)c2ccccc12,inactive: 75.2 µM
5,CCOC(=O)NC(=S)c1ccc(O)c2ccccc12,inactive: 45.9 µM
6,O=C1N(c2ccccc2)C(=S)/C(=C/c2ccc(Cl)cc2)N1c1ccc(Cl)cc1,inactive: > 100 µM
7,CCN(CC)CC(C)(C)C(=O)/C=C/c1ccc(C)cc1,inactive: 4.94 µM
8,CC[C@@]1(O)C(=O)OCc2c1cc1n(c2=O)Cc2cc3ccccc3nc2-1 [CAMPTOTHECIN],active: 0.107 µM
9,C=CCCCCCCCCC(=O)O [UNDECYLENIC ACID],inactive: 21.4 µM
10,C[N+](C)(C)CC(=O)N/N=C(\CCC(=O)NCCc1ccccc1)CC(=O)c1ccccc1,inactive: > 100 µM
11,COc1ccc(-c2cc(-c3ccccc3)c3c(n2)-c2ccccc2NC(=O)C3)cc1,inactive: 80.2 µM
12,CC1C(OS(=O)(=O)c2ccc3nc(S)sc3c2)CC2C3(C)CCC2(C(C)C(=O)O)C(O)C13 (centres undefined),inactive: 53.8 µM
13,CC(C)C(C)/C=C\C(C)C1CCC2C3=CC=C4CC(O)CCC4(C)C3CCC21C (centres undefined),inactive: > 72.4 µM
14,O=C1C(NS(=O)(=O)c2ccccc2)=C(N(Cc2ccccc2)Cc2ccccc2)C(=O)c2ccccc21,inactive: 51.1 µM
15,Cc1nc2ccc(Cl)cc2c2c1CCN2c1ccccc1,inactive: 15 µM
16,O=C(Nc1ccccc1C(=O)NCCCO)/C(=C/c1ccccc1O)NC(=O)c1ccccc1,inactive: > 92 µM
17,COc1ccc(CCNC(=O)Cc2ccccc2CCO)cc1OC,inactive: > 100 µM
18,CS(=O)(=O)c1ccc2nc(-c3ccc(O)cc3)sc2c1,inactive: 16.6 µM
19,C[C@]12CCC(=O)C=C1C[C@@H](O)[C@@H]1[C@@H]2CC[C@@]2(C)[C@H]1CC[C@]2(C)O,inactive: > 100 µM
20,Cc1coc2c1CC1(C)C(CCC(O)C1C)C2 (centres undefined),inactive: > 100 µM
21,CC1=NN(c2nc(N)nc(NS(=O)(=O)c3cc(C)c(Cl)cc3S)n2)C(C)(C)C1,inactive: > 10 µM
22,O=C(NC1CCCC1=O)c1ccccc1 (centres undefined),inactive: > 100 µM

row,Compound,GI50
1,Cc1ccc(-n2c(Cn3nnc(-c4cccnc4)n3)nn(C3OC(COC(=O)c4ccccc4)C(OC(=O)c4ccccc4)C3OC(=O)c3ccccc3)c2=S)cc1 (centres undefined),inactive: > 100 µM
2,CN(C)CC(C)(C)CN1c2ccccc2Sc2ccccc21,inactive: 15.5 µM
3,COC(=O)C(C(=O)C(=O)Nc1ccc(C(F)(F)F)cc1[N+](=O)[O-])c1csc(-n2nc(-c3ccccc3)cc2-c2ccccc2)n1 (centres undefined),inactive: > 100 µM
4,COc1cc(/C=N/NC(=O)c2c(Cl)c(Cl)c(Cl)c(Cl)c2-c2nc3cc(C(=O)c4ccccc4)ccc3[nH]2)ccc1O,inactive: > 100 µM
5,COc1ccc(/C(C)=C2\CCCN(Cc3ccccc3)C2)cc1,inactive: 32 µM
6,COc1ccc2cc(CN3CCC(C4CCN(Cc5ccc6cc(OC)ccc6c5)CC4)CC3)ccc2c1,inactive: 3.11 µM
7,CCOP(=O)(OCC)/C(C#N)=C/c1cnc(-c2ccccc2)[nH]1,inactive: > 100 µM
8,CC1(C)COC2=C(C1)C(=O)c1ccccc1C2=O,inactive: 1.67 µM
9,CCOC(=O)CCc1c(C(=O)OCC)[nH]c(/C=C2/NC(=O)C(C)=C2CC)c1C,inactive: > 100 µM
10,Cc1ccc(S(=O)(=O)N/N=C2/CCC3(O)CC2(C)CCC2[C@H]3CC2(C)C)cc1 (some centres undefined),inactive: 53.8 µM
11,O=C1Nc2ccccc2/C1=N/Nc1ccccc1[N+](=O)[O-],inactive: 59.6 µM
12,CCO/C=C1\N=C(C(Cl)c2ccccc2)OC1=O (centres undefined),inactive: > 100 µM
13,COc1ccccc1NC(=O)C1=C(C)NC(C)=C(C(=O)Nc2ccccc2OC)C1C1=CC=COC1,inactive: 19.7 µM
14,O=C(c1ccc([N+](=O)[O-])cc1)N1CCCC1,inactive: > 100 µM
15,COc1ccc(-c2cc(N3CCN(c4ccccc4)CC3)c(C#N)c(=O)o2)cc1,inactive: 59.8 µM
16,COCCOC(=O)c1c(C)[n+]([O-])c2cc(Cl)c(Cl)cc2[n+]1[O-],inactive: 30.4 µM
17,CCCCCCCCCC[C@@H](O)[C@@H]1CC[C@@H]([C@@H]2CC[C@@H]([C@@H](O)CCCCCCCCCC[C@H](O)CC3=CC(C)OC3=O)O2)O1 (some centres undefined),inactive: 3.21 µM
18,CN(C)CCNC(=O)c1cccc2c(Nc3ccc(S(N)(=O)=O)cc3)c3ccccc3nc12,inactive: 1.66 µM
19,CNC(=O)OCc1nc([S+](C)[O-])n(C)c1COC(=O)NC (centres undefined),inactive: > 100 µM
20,CCc1oc2ccc(OC)c3c2c1C=CC=C3,inactive: > 100 µM
21,CCN(CC)CCCN(c1cc(OC)cc2nccnc12)S(=O)(=O)c1ccc(C)cc1,inactive: > 100 µM
22,CCN(CC)CCNC(=O)c1ccc(I)cc1,inactive: > 100 µM
